The values below come from the RNAGym collection of RNA variant scans (doi:10.1093/nar/gkz1192).

The source gives no read counts; variants with many changes may rest on few reads.

B1: CPEB3 Ribozyme (parent)
chain: UAACAGGGGGCCACAGCAGAAGCGUUCACGUCGCAGCCCCUGUCAGAUUCUGGUGAAUCUGCGAAUUCUGCUGUAUAUCUC

Variants of B1 are the subject of this data set. Description: self-cleavage, relative activity (ratio to wild type); higher = more cleavage; in vitro, sequencing. The gist of the method:
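For each CPEB3 ribozyme variant, relative activity is its cleaved/total read fraction divided by the unmutated ribozyme's. Barcoded error-prone PCR libraries were transcribed by T7 RNA polymerase (5 hours, 37°C) and held in DNase I for 15 min before an EDTA stop, with cleavage occurring throughout. Template-switching reverse transcription and Illumina sequencing were used to read the RNAs. A 5-read minimum applied, and results are the mean of three batches.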
For UAACAGGGGGCCGCAGCAGAAGCGCUCACGUCGCAGCCCCUGUCAGAUUCUGGUGAAUCUGCGAACUCUGCAGUAUACCUC [A13G U25C U66C U72A U78C], the self-cleavage worked out at 0.08.

On to UAACAGGGGGCCGCAGCAGAAGCGUACACGUCGCGGCCUCUGUCAGAUUCUGGUGAAUCUGCGAAUUCUGCUGUAUAUCCC [A13G U26A A35G C39U U80C], for which the self-cleavage is 0.66.

As for UAACAGGGGGCCGCAGCAGAAGCGUUCACGUCGCAGCCCCAGUCAGAUUCUGGUGAAUCAGCGAGUUCUGCUGUAUACCUC [A13G U41A U60A A65G U78C], the self-cleavage stood at 0.23.

As to UAACAGGGGGCCGCAGCAGAAGCGCUCACGUCGCGGCCCCUGUCAGAUUCUGGUGAAUCUGCGAAUUCAGCUGUAUAUCUC [A13G U25C A35G U69A], the self-cleavage came to 0.56.

Turning to UAACAGGGGGCCGCAGCAGAAGCGUUCACGUCGCAGCCCCUAUCAGAUUCUGGUGAAUCUGCGAAUUCUGCAGUAUAUCUC [A13G G42A U72A], the self-cleavage was found to be 0.15.

For the variant UAACAGGGGGCCGCAGCAGAAGCGUCCACGUCGCAGCCCCGGUCAGAUUCUGGUGAGCCUGCGAAUUCUGCUGUAUAUCUC [A13G U26C U41G A57G U58C], the self-cleavage is 0.

Regarding UAACAGGGGGCCGCAGCAGAAGCGUUCACGUCGCAGCCCCCGUCAGACCCUGGUGAAUCUGCGAAUUCUGCUGUAUAUCUC [A13G U41C U48C U49C], the self-cleavage worked out at 0.23.

Turning to UAACAGGGGGCCGCAGCAGAAGCGCUCACGUCGCAGCCCCUGUCAGAUUCUGGUGAAUCAGCGAAUUCUGCUGUAUAUCAC [A13G U25C U60A U80A], the self-cleavage came out at 0.24.

UAACAGGGGGCCGCAGCAGAAGCGUUCACGUCGCAGCCCCUGACAGAUUCUGGUGAGUCUGCGAAUUCUGCCGUAUAUCUC [A13G U43A A57G U72C]: the self-cleavage is 0.99.

UAACAGGGGGCCGCAGCAGAAGCGUUCACAUCGCAGCCCCUGUCAGAUUCUGGUGAAUCUGCGAACUCUGCUGUAUAUCUC [A13G G30A U66C]: the self-cleavage was 0.22.

For the variant UAACAGGGGGCCGCAGCAGAAGCGUCCCCGUCGCAGCCCCUGUCAGAUUCUGGUGAAUCUGCGAAUACUGCUGUAUAUCUC [A13G U26C A28C U67A], the self-cleavage turned out to be 0.09.

For UAACAGGGGGCCGCAGCAGAAGCGUUCACGCCGCAGCCCCUGUCAGGUUCUGGUGAAUCUGCGAAUUCUGCCGUAUAUCUC [A13G U31C A47G U72C], the self-cleavage stood at 0.24.

As for UAACAGGGGGCCGCAGCAGAAGCGUUCACGUCGCAGCCCCUGCCAGAUUCUGGUGAAUCUGCGAAUUCUGCUGAAUAUCUC [A13G U43C U74A], the self-cleavage amounted to 0.88.

On to UAACAGGGGGCCGCAGCAGAAGCGUUCACGUCGCAGCCCCUGACAGAUUCUGGAGAAUCUGCGAAUUCUGCUGUAUAUCUC [A13G U43A U54A], for which the self-cleavage came to 0.97.

With UAACAGGGGGCCGCAGCAGAAGCGCCCACGUCGCAGCCCCUGUCAGAUUCUGGCGAAUCUGCGAAUCCUGCUGUUUAUCUC [A13G U25C U26C U54C U67C A75U], the self-cleavage was 0.12.

Turning to UAACAGGGGGCCGCAGCAGAAGCGUUCACGACGCAGCCCCUGUCAGAUUCUGGUGAACCUGCGAAUUCUGCUGCAUAUCUC [A13G U31A U58C U74C], the self-cleavage is 0.18.

Take UAACAGGGGGCCGCAGCAGAAGCGUUCACGUCGCAGCCCCAGUCAGAUUCGGGUGAAUCUGCGAAGUCUGCUGUAUAUCUC [A13G U41A U51G U66G]: the self-cleavage was determined as 0.1.

With UAACAGGGGGCCGCAGCAGAAGCGCUCACGUCGCAGCCCCUGUCAGAUCCUGGUGAAACUGAGAAUUCUGCAGUAUAGCUC [A13G U25C U49C U58A C62A U72A U78G], the self-cleavage was found to be 0.11.

In the case of UAACAGGGGGCCGCAGCAGAAGCGUUCACGCCGCAGCCCCUGUCGGAUUCUGGUGAAUCUGCGGAUUCUGCUGAAUAUCUC [A13G U31C A45G A64G U74A], the self-cleavage turned out to be 0.2.

Regarding UAACAGGGGGCCGCAGCAGAAGCGCUCACGUCGCAGCCCCUGUCGGAUUCUGGUGAAUCUGCGUAUUCUGCUGUAUAACUC [A13G U25C A45G A64U U78A], the self-cleavage was 0.05.

Consider UAACAGGGGGCCGCAGCAGAAGCGUUCACGUCGCAGCCCCUGUCAGAUUCUGUUGAAUCUGAGAAUUCUGCUGUAUAUCCC [A13G G53U C62A U80C], for which the self-cleavage was 0.21.

Turning to UAACAGGGGGCCGCAGCAGAAGCGUUCACGUCGCAGCCCCUGUCAUAUCCUGGUGAAUCUGCGAAUUCUGCUGUAUAUCUC [A13G G46U U49C], the self-cleavage came out at 0.07.

Take UAACAGGGGGCCGCAGCAGAAGCGUUCACGACGCAGCUCCUGUCAGAUUCUGGUGAAUCUGCGAAUUCUGCUGUAUAUCUC [A13G U31A C38U]: the self-cleavage was found to be 0.31.

Take UAACAGGGGGCCGCAGCAGAAGCGUUCACUUCGCAGCCACUGUCAGAUUCUGGUGAAUCUGCGAAUUCUGCUGUAUAUCUC [A13G G30U C39A]: the self-cleavage was 0.3.

UAACAGGGGGCCGCAGCAGAAGCGCUCACGUCGCAGCCCCUGUCAGAUUCUGGUGAAUCAGCGAACUCUGCCGUAUAUCUC [A13G U25C U60A U66C U72C]: the self-cleavage was found to be 0.21.

Consider UAACAGGGGGCCGCAGCAGAAGCGUUCACGUCGCAGCCCCCGUCAGAUUCCGGUGAAUCUGCGAAUUCUGCUGUAUAUCUC [A13G U41C U51C], for which the self-cleavage is 0.88.

Consider UAACAGGGGGCCGCAGCAGAAGCGUUCACGACGCAGCACCAGUCAGAUUCUGGUGGAUCUGCGAAUUCUGCUGUAUAUCUC [A13G U31A C38A U41A A56G], for which the self-cleavage came out at 0.23.

UAACAGGGGGCCGCAGCAGAAGCGUCCACGUCGCAGCCCCUGUCAGAUUCCGGUGAAUCUGCGAAUUCUGCUGUAUAUCUC [A13G U26C U51C]: the self-cleavage was found to be 0.55.

Regarding UAACAGGGGGCCGCAGCAGAAGCGUCCUCGUCGCUGCCCCUGUCAGAUUAUGGUGAAUCUGCGAAUUCUGCUGUAUACCUC [A13G U26C A28U A35U C50A U78C], the self-cleavage was 0.04.

In the case of UAACAGGGGGCCGCAGCAGAAGCGUUCACGCCGCAGCCCCAGUCAGAUUCUGGGGAAUCUGCGAAUUCUGCUGUAUAUCUC [A13G U31C U41A U54G], the self-cleavage was found to be 0.1.

Turning to UAACAGGGGGCCGCAGCAGAAGCGUUCACGUCGCAGCCCCCGUCAGAUUCUGGUGAACCUGCGAAUACUGCUGUAUACCUC [A13G U41C U58C U67A U78C], the self-cleavage amounted to 0.13.

Turning to UAACAGGGGGCCGCAGCAGAAGCGUUCACUUCGCAGCCCCUGUCAGAUUCAGGUGAAUCAGCGAAUUCUGCUGUAUAUCUC [A13G G30U U51A U60A], the self-cleavage is 0.15.

Regarding UAACAGGGGGCCGCAGCAGAAGCGUUCACGCCGCAGCCCCUGUCAGAUUCUGGUGAAUCUGCGAAAUCCGCUGUAUAUCUC [A13G U31C U66A U69C], the self-cleavage amounted to 0.07.

On to UAACAGGGGGCCGCAGCAGAAGCGACCGCGUCGCAGCCCCUGUCAGAUUCUGGUGAUUCUGCGAAUUCUGCUGUAUAUCUC [A13G U25A U26C A28G A57U], for which the self-cleavage turned out to be 0.11.
